# Laboratory results from the supplement of paper PMC3334620.
# Over roughly 33,000 sequences, “E-score (-0.5 to 0.5)” has its median near -0.011; the highest 2% begin near 0.28. Some of the results follow.
# Target: T1, Gcr1 (UniProt P07261)
# T1 sequence: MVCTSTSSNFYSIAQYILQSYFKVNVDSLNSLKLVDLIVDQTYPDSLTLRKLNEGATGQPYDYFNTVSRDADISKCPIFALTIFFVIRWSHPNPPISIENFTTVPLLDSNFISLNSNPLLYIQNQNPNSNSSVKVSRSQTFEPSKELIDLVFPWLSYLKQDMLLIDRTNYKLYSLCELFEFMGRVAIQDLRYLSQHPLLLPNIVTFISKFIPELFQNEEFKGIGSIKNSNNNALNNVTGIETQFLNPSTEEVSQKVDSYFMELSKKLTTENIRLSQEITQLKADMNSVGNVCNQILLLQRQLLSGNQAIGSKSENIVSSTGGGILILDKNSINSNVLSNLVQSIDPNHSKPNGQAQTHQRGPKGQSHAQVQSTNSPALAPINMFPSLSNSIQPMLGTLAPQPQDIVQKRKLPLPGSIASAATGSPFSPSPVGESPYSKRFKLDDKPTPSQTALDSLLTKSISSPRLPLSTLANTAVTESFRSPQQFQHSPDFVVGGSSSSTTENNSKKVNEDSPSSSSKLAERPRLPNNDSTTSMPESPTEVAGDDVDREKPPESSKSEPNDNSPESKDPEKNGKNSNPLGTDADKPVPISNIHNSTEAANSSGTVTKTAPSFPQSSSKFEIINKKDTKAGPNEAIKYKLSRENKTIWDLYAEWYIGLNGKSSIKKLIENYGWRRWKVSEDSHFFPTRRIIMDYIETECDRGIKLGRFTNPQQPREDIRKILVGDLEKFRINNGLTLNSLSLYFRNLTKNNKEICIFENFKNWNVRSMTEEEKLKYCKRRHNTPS
# Test: PBM E-score (8-mer binding enrichment) (E-score (-0.5 to 0.5)); higher = stronger / more preferred TF binding; most listed sequences are background and not binding sites
# Conditions: protein concentration: 100 nM; construct: GST-full length
# Summary of the method: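 Bound GST-tagged yeast transcription factors, applied at about 100-200 nM to double-stranded universal all-10-mer Agilent arrays, were detected with fluorescent anti-GST. Scans were normalised with masliner. A modified Wilcoxon-Mann-Whitney statistic, the E-score, was assigned to each ungapped eight-base word pooled with its reverse complement by the Universal PBM Analysis Suite.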
row,Sequence,PBM E-score
1,CCGTTGGA,-0.0294
2,AGAGAGAG,-0.139
3,AACCTAGC,-0.0258
4,CGGAGGGC,-0.176
5,ACATTAAT,-0.0555
6,CTTCAATC,-0.122
7,CGTGGCGC,-0.199
8,AGTTACAT,-0.0283
9,GCGGGACA,-0.0993
10,CTGCTAAA,0.17
11,TATTCAGA,0.0401
12,ATCGTTCC,-0.0602
13,ACCCTTAG,-0.257
14,AGCGTCTG,0.175
15,CAAGGGAC,-0.153
16,CACGGGTA,-0.0515
17,AGATGGTA,-0.141
18,ATATCACA,-0.0039
19,AAACGTAA,-0.0438
20,AGTATTGG,0.169
21,CAGGTATG,0.0313
22,CGCTCGAC,-0.094
23,TCGGATCA,0.0877
24,CTCCTGAC,-0.0163
25,GGACCGCC,-0.0463

row,Sequence,PBM E-score
1,ACCGTGCT,0.145
2,AGAACGAC,0.00731
3,AAACGAAT,0.126
4,CAGTAAGG,-0.00208
5,CTTAGCGC,0.154
6,CCCCCTAA,-0.258
7,TCACTACA,0.126
8,CCACATAG,0.0534
9,AAAGTCAC,0.0974
10,AAAGGATG,0.189
11,TACCAATA,0.00103
12,AAAAAGCA,0.0551
13,GAGTTCAC,-0.0309
14,ATACTACC,0.0228
15,AAAGACAC,-0.0476
16,ATGTAACG,-0.0781
17,CAGCCAAG,0.0163
18,AACTGGGG,0.084
19,AGTTCTAG,-0.0557
20,AGGCTAGC,-0.281
21,CCCTTTCG,0.0339
22,AACTTCAC,-0.0727
23,TAAGAGAA,-0.0423
24,GATGGCTA,-0.115
25,TGAACACA,-0.0975

row,Sequence,PBM E-score
1,AGTCATAG,-0.151
2,ATAGTCCG,-0.228
3,GATGGGCC,-0.117
4,GATGAACC,-0.0731
5,CGTCAGCC,-0.143
6,ATAATACA,0.106
7,CGAACAAC,-0.0516
8,ACCTAGGG,-0.124
9,AGACCATG,-0.268
10,ATAGGTAC,-0.0413
11,CTTTCGAA,-0.0912
12,AGAACTTA,-0.111
13,AAACTAGA,-0.0509
14,CTCTACTC,-0.084
15,GTTAGAGA,-0.0751
16,AATTCCCA,-0.0967
17,GTGTCGTA,-0.154
18,ACCGGTAA,0.102
19,AATTATTG,0.00444
20,CCCTGCCG,-0.252
21,GAGGAGGA,-0.217
22,CAGATAAC,-0.13
23,ACTCGTGG,-0.0835
24,CTCTCAGA,0.0815
25,AATATGAC,0.127

row,Sequence,PBM E-score
1,CCTATTAA,0.0644
2,ACCGTTAG,-0.0968
3,AGCCAATG,0.0118
4,ATTTCTGC,0.13
5,CTTAAGCA,0.114
6,AGAGAGGA,0.109
7,CCCGCATA,0.173
8,GCCGTACA,-0.146
9,AAACAACC,0.0203
10,GTTAGAAA,-0.103
11,AAAGAGTT,-0.155
12,CCACGGGG,-0.0972
13,CCGCCAAC,-0.16
14,GTGAGAAA,-0.18
15,AACTTGGT,0.0662
16,AGACTGAA,-0.00354
17,CCCGTTCG,-0.132
18,ACCTCCAT,-0.24
19,AAAGTCCG,-0.239
20,AGAATCGA,0.0158
21,CGTATCAG,-0.0534
22,CGGGTCAC,-0.0739
23,AAACGGTT,0.0961
24,ACGCCTAG,-0.0205
25,GTCGGTCA,-0.37

row,Sequence,PBM E-score
1,ATTCAGAG,-0.0292
2,CCGAACTA,0.147
3,CACGAGAC,0.00916
4,CGGACAGA,-0.238
5,GGTACGCA,-0.129
6,GTGCCGTA,-0.168
7,CTTTTAAC,-0.0302
8,GTGCGTCA,-0.0562
9,CAACTAGC,0.093
10,TAGATTCA,0.11
11,ACACGCGA,0.018
12,ATCCAGCC,0.173
13,CTTATGTA,-0.00244
14,TAACGTAA,-0.128
15,CCCGGACA,-0.0249
16,CCGAGTTA,-0.159
17,TCGGCACA,-0.129
18,GACGGCCC,-0.152
19,ACCCGGCT,-0.0691
20,ATCATCCG,-0.191
21,AAGCAGGC,-0.232
22,CTGTTCCA,-0.119
23,GACTGTTA,-0.228
24,TCTGCACA,0.11
25,AGCACACA,-0.0788

row,Sequence,PBM E-score
1,CTGCACAA,-0.0488
2,CAACCGAC,-0.0348
3,AAACACTC,0.0102
4,AGGATCTC,0.0956
5,AGGAGTCC,0.303
6,CTTCGTGA,0.188
7,ATGGGTGC,0.19
8,ACGTTAAC,-0.116
9,CGAAGATA,-0.0833
10,ACATTCAC,-0.042
11,GTCTCCCA,-0.0386
12,ACGCTCTG,-0.306
13,CCACCATA,-0.00956
14,ATTTGATG,-0.0787
15,GGCCGTCA,-0.0384
16,GAAATCTC,0.064
17,CTCTTGGA,0.0381
18,CCAGGGAG,-0.218
19,ATTGACTA,0.109
20,CCGCCTCA,-0.224
21,CCTGCGCG,-0.142
22,CATCCTTA,0.131
23,AGAAGGGG,-0.101
24,ATGATATG,0.0296
25,CCTTCTCG,-0.144

row,Sequence,PBM E-score
1,CAGAGAGG,0.071
2,GGAGTGAC,-0.0705
3,GTGCACGA,-0.11
4,AGGCAAAC,-0.275
5,ACTTAGCG,-0.0156
6,ATAAGGGC,-0.11
7,ATCACCAC,-0.102
8,CACCGCTC,0.00387
9,GTCGAACA,0.0829
10,ACTTTGAA,-0.121
11,CAGTAGTC,0.00525
12,ACAGAACT,-0.0122
13,AACGATGG,-0.184
14,ACCCTGAT,0.05
15,AGATGAGA,-0.055
16,CTGATATC,0.0702
17,AATCTAAA,0.00538
18,GCGGAAAA,0.0127
19,AAGACAAC,-0.247
20,GCAAGGAC,-0.302
21,GCACCTGA,0.0656
22,ATTTGACC,-0.059
